From the supplement of paper PMC9446081
The campaign covered roughly 39,000 compounds. About 220 (0.56%) showed activity. Some of the results follow.

What follows are compounds tested on Escherichia coli K-12 BW25113 (assay: relative growth (OD600 normalised to plate interquartile mean) (fraction); higher = less growth inhibition, active = 0.2 or less). Settings: 50 µM; LB; incubation time: overnight (16-24 h).
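Further: static incubation at 37 °C against the wild-type strain, values averaged over two biological replicates.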

Row | SMILES | relative growth
1 | C[C@H](CO)N1C[C@H](C)[C@@H](CN(C)C(=O)Nc2ccccc2)OCCCC[C@H](C)Oc2ccc(NC(=O)c3ccccc3)cc2C1=O | inactive: 1.02
2 | CC(C)NC(=O)Nc1ccc2c(c1)C(=O)N([C@H](C)CO)C[C@@H](C)[C@H](CN(C)Cc1ccc(C(=O)O)cc1)O2 | inactive: 1.02
3 | CC1(C)CCCC2(C)C1CCC1(C)OC(=O)CC12 (centres undefined) | inactive: 0.873
4 | COC1=C2C[C@@H](C)C[C@H](OC)[C@H](O)[C@@H](C)/C=C(\C)[C@H](OC(N)=O)[C@@H](OC)/C=C\C=C(/C)C(=O)NC(=CC1=O)C2=O | inactive: 1.01
5 | C[C@@H]1CN([C@H](C)CO)C(=O)c2cc(NC(=O)Nc3ccc(C(F)(F)F)cc3)ccc2O[C@@H](C)CCCCO[C@H]1CN(C)Cc1ccc(C(F)(F)F)cc1 | inactive: 1.04
6 | Cc1ccc(S(=O)(=O)N2C[C@@H](O)COC[C@H]3O[C@H](CC(=O)N[C@@H]4CCN(Cc5ccccc5)C4)CC[C@@H]32)cc1 | inactive: 0.987
7 | COCCNC(=O)C[C@@H]1CC[C@H]2[C@@H](COC[C@@H](O)CN2S(=O)(=O)c2ccccc2C)O1 | inactive: 1.01
8 | COCC(=O)N1CC[C@]2(CC1)CN(Cc1cccc(c1)OC)[C@H](CO)c1c2c2ccc(cc2n1C)OC | inactive: 1.02
9 | C[C@@H]1CCCCO[C@@H](CN(C)C(=O)Nc2cccc3ccccc23)[C@@H](C)CN([C@@H](C)CO)C(=O)c2cc(NC(=O)Nc3ccc(C(F)(F)F)cc3)ccc2O1 | inactive: 1.03
10 | COc1cccc(S(=O)(=O)N(C)C[C@@H]2Oc3cc(C#CCN(C)C)ccc3S(=O)(=O)N([C@H](C)CO)C[C@H]2C)c1 | inactive: 0.997
11 | C[C@@H]1CN([C@@H](C)CO)C(=O)c2cccc(NC(=O)Nc3ccc(C(F)(F)F)cc3)c2O[C@@H]1CN(C)C(=O)Nc1cccc2ccccc12 | inactive: 0.969
12 | C[C@H](CO)N1C[C@H](C)[C@H](CN(C)S(=O)(=O)c2ccccc2)Oc2ncc(-c3cccc(C(=O)N(C)C)c3)cc2C1=O | inactive: 1
13 | C[C@@H]1CN([C@@H](C)CO)C(=O)c2cccc(NC(=O)Nc3ccc(C(F)(F)F)cc3)c2O[C@@H]1CN(C)Cc1ccc(C(=O)O)cc1 | inactive: 0.987
14 | CC(C)NC(=O)Nc1cccc2c1O[C@H](CN(C)S(=O)(=O)c1ccc(F)cc1)[C@@H](C)CN([C@H](C)CO)C2=O | inactive: 1.02
15 | COc1ccc2c3c([nH]c2c1)[C@H](CO)N(C[C@]13CN(Cc2ccccc2)C1)S(=O)(=O)c1cn(cn1)C | inactive: 0.978
16 | CC(C)C(=O)[C@@H]1C(=O)O[C@@H](c2ccoc2)[C@]2(C)[C@H](O)[C@@H](O)[C@@]34O[C@]5(C)O[C@]3([C@H]12)[C@H](O)[C@@]1(O)[C@H](O)[C@]2(C)C[C@]1(O5)[C@@]4(C)[C@H]2CC(=O)O | inactive: 1.03
17 | C[C@H]1CCCCO[C@@H](CN(C)Cc2ccc(C(=O)O)cc2)[C@@H](C)CN([C@@H](C)CO)C(=O)c2cc(NS(=O)(=O)c3cccs3)ccc2O1 | inactive: 1.04
18 | COc1cccc(CN2C[C@@H](C)[C@H](OC)CN(C)C(=O)c3cc(NS(=O)(=O)c4cn(C)cn4)ccc3OC[C@H]2C)c1 | inactive: 1.01
19 | C=CC(=O)Nc1cccc(C)c1Nc1ncc2cc(-c3c(Cl)c(OC)cc(OC)c3Cl)ccc2n1 | inactive: 0.979
20 | Cc1ccc(S(=O)(=O)Nc2ccc3c(c2)C(=O)N([C@@H](C)CO)C[C@H](C)[C@H](CN(C)CC2CCCCC2)OCCCC[C@H](C)O3)cc1 | inactive: 0.979

Row | SMILES | relative growth
21 | CN(C[C@@H](O)CN)S(=O)(=O)c1ccccc1 | inactive: 1.01
22 | C[C@H](CO)N1C[C@H](C)[C@@H](CN(C)Cc2ccccc2)Oc2c(NC(=O)c3ccc(-c4nccs4)cc3)cccc2C1=O | inactive: 1.03
23 | O=C(O)C1CCN(c2ncccn2)CC1 | inactive: 1.02
24 | C[C@H]1CN([C@@H](C)CO)C(=O)c2cccc(NC(=O)Nc3ccccc3)c2O[C@@H]1CN(C)C(=O)Nc1ccc(C(F)(F)F)cc1 | inactive: 0.753
25 | C[C@H]1CN([C@@H](C)CO)C(=O)Cc2cc(NC(=O)Cn3cnnn3)ccc2O[C@@H]1CN(C)S(=O)(=O)c1cccs1 | inactive: 0.997
26 | CC(C)NC(=O)Nc1ccc2c(c1)C(=O)N([C@@H](C)CO)C[C@@H](C)[C@H](CN(C)S(=O)(=O)c1cn(C)cn1)OCCCC[C@H](C)O2 | inactive: 0.984
27 | Cc1noc(C)c1S(=O)(=O)N(C)C[C@H]1OCCCC[C@@H](C)Oc2ccc(NC(=O)Nc3ccc(C(F)(F)F)cc3)cc2C(=O)N([C@H](C)CO)C[C@@H]1C | inactive: 0.978
28 | COc1ccc(S(=O)(=O)N(C)C[C@@H]2Oc3c(NS(=O)(=O)c4ccc(C)cc4)cccc3C(=O)N([C@H](C)CO)C[C@@H]2C)cc1 | inactive: 1.02
29 | C[C@@H]1CN([C@H](C)CO)C(=O)c2cc(NC(=O)Nc3cccc4ccccc34)ccc2O[C@H]1CN(C)C(=O)Nc1ccc(C(F)(F)F)cc1 | inactive: 0.946
30 | C[C@H]1CN([C@@H](C)CO)C(=O)Cc2cc(NC(=O)C3CC3)ccc2O[C@@H]1CN(C)C(=O)Nc1ccc(F)cc1 | inactive: 1.02
31 | C=CC(=O)N[C@@H]1c2ccccc2C[C@@H]1O | inactive: 1.02
32 | Cl.N=c1ccn2c(n1)OC1C(O)C(CO)OC12 (centres undefined) | inactive: 1.09
33 | COc1ccc(NC(=O)Nc2ccc3c(c2)[C@H]2C[C@H](CC(=O)NCC(F)(F)F)O[C@H](CO)[C@H]2O3)cc1 | inactive: 1.02
34 | COCC(=O)N1[C@H](C(=O)N2CCN(C)CC2)[C@@H](CO)[C@@H]2Cn3c(ccc(C4=CCCCC4)c3=O)[C@@H]21 | inactive: 1.01
35 | C[C@H](CO)N1C[C@H](C)[C@H](CN(C)Cc2ccc(-c3ccccc3)cc2)Oc2c(NC(=O)c3nc4ccccc4s3)cccc2C1=O | inactive: 1.01
36 | C[C@@H]1CCCCO[C@@H](CN(C)Cc2ccccc2)[C@@H](C)CN([C@@H](C)CO)C(=O)c2cc(NC(=O)c3ccccc3)ccc2O1 | inactive: 1
37 | COc1ccccc1S(=O)(=O)N[C@@H]1CC[C@H](CCNC(=O)C2CC2)O[C@H]1CO | inactive: 0.984
38 | O=C(Cc1ccccc1)Nc1ccccc1Sc1ccccc1 | inactive: 1.01
39 | CC(C)c1cn(CC[C@H]2CC[C@H](N)[C@@H](CO)O2)nn1 | inactive: 0.981
40 | COc1cccc(S(=O)(=O)N2C[C@H](O)COC[C@H]3O[C@H](CC(=O)N4CCN(C)CC4)CC[C@@H]32)c1 | inactive: 0.992

Row | SMILES | relative growth
41 | NCCCCCc1nc2ccccc2[nH]1 | inactive: 0.944
42 | NC(=S)Nc1ccncc1 | inactive: 1.02
43 | COc1ccc(C#Cc2cnc3c(c2)C(=O)N([C@@H](C)CO)C[C@@H](C)[C@@H](CN(C)C(=O)CN(C)C)O3)cc1 | inactive: 1.03
44 | C[C@@H]1CCCCO[C@H](CN(C)C(=O)CCC(F)(F)F)[C@@H](C)CN([C@@H](C)CO)C(=O)c2cc(NC(=O)CCCCCC(=O)Nc3ccccc3N)ccc2O1 | inactive: 1.07
45 | COc1ccc(S(=O)(=O)N(C)C[C@@H]2Oc3c(NC(=O)C4CC4)cccc3C(=O)N([C@@H](C)CO)C[C@H]2C)cc1 | inactive: 0.997
46 | CCNC(=O)C[C@@H]1C=C[C@H](NC(=O)C2CC2)[C@H](CO)O1 | inactive: 1.01
47 | C[C@@H]1CN([C@H](C)CO)C(=O)c2cccc(NC(=O)Nc3ccc(C(F)(F)F)cc3)c2O[C@H]1CN(C)S(=O)(=O)c1ccc(F)cc1 | inactive: 0.863
48 | C[C@H](CO)N1C[C@H](C)[C@H](CN(C)Cc2ccc(C(F)(F)F)cc2)OCCCC[C@H](C)Oc2ccc(NC(=O)NC3CCCCC3)cc2C1=O | inactive: 1
49 | Cc1ccc(S(=O)(=O)N(C)C[C@H]2Oc3ccc(NS(=O)(=O)c4ccc(F)cc4)cc3C(=O)N([C@@H](C)CO)C[C@@H]2C)cc1 | inactive: 0.996
50 | NC(=O)[C@H]1[C@@H]2C(=O)O[C@@H](c3ccccc3)[C@@H](c3ccccc3)N2[C@@H](c2ccc(O)cc2)[C@]12C(=O)Nc1ccc(C#CC3(O)CCCCCC3)cc12 | inactive: 1.02
51 | COc1cc2c(cc1OC)C(=O)NCC2 | inactive: 1.01
52 | C[C@@H]1CCCCO[C@@H](CN(C)C(=O)Cc2ccccc2)[C@H](C)CN([C@@H](C)CO)C(=O)c2cc(NC(=O)Nc3cccc4ccccc34)ccc2O1 | inactive: 1.03
53 | COc1ccc(NC(=O)N(C)C[C@@H]2OCCCC[C@@H](C)Oc3ccc(NC(=O)CCC(F)(F)F)cc3C(=O)N([C@@H](C)CO)C[C@H]2C)cc1 | inactive: 0.994
54 | COc1ccccc1CNC(=O)C[C@@H]1C[C@H]2c3cc(NC(=O)Nc4ccc(C(F)(F)F)cc4)ccc3O[C@H]2[C@H](CO)O1 | inactive: 0.998
55 | Cc1ccc(S(=O)(=O)Nc2cccc3c2O[C@H](CN(C)S(=O)(=O)c2cccs2)[C@H](C)CN([C@H](C)CO)C3=O)cc1 | inactive: 0.937
56 | C[C@H](CO)N1C[C@H](C)[C@@H](CN(C)S(C)(=O)=O)Oc2c(NC(=O)c3ccc(-c4nccs4)cc3)cccc2C1=O | inactive: 0.99
57 | C[C@@H]1CCCCO[C@H](CN(C)C(=O)CCC(F)(F)F)[C@@H](C)CN([C@@H](C)CO)C(=O)c2cc(NC(=O)CCC(F)(F)F)ccc2O1 | inactive: 1
58 | COc1ccc(-c2ccc3n(c2=O)C[C@@H]2[C@@H](CO)[C@H](C(=O)NCC4CC4)[C@H]3N2S(C)(=O)=O)cc1 | inactive: 0.991
59 | CCCNC(=O)N1C[C@H](O)COC[C@H]2O[C@H](CC(=O)N3CCN(C)CC3)CC[C@@H]21 | inactive: 1.02
